From the supplement of paper PMC11417369
± gives the standard deviation of the averaged measurements. Some of the results follow.

These sequences were tested on PfAP2-G AP2 domain (GST-tagged) (assay: gcPBM binding intensity (ln(normalized median fluorescence intensity)); higher = stronger DNA binding).
Method in brief: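 Binding intensity is defined as the maximum Masliner-normalised natural-log median intensity across replicate spots for either probe orientation. It was measured on an Agilent 4 × 180k array of primer-extended double-stranded 36-bp intergenic genomic probes and negative controls, to which GST-tagged P. falciparum DNA-binding domains made in E. coli were applied for 1 h in 1× PBS with 1% milk, 0.2 mg/ml BSA, 0.5% salmon testes DNA and 0.03% Triton X-100. Detection was by Alexa488 anti-GST antibody and scanning at 488 nm.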

| Sequence | gcPBM binding intensity (ln) |
| --- | --- |
| CCTTAAATAATATATTCACACAATATAACAAAAATT [CACACA_site4892] | 9.94 ± 0.085 |
| TGGTATATAAAACACACACACATATGTATATATATA [CACACA_site926] | 10.1 ± 0.28 |
| TATACATAGAAACACACACACATAAATAAATATATA [CACACA_site1342] | 10 ± 0.11 |
| AAATTACTGTAAAAAAGTACAGAAGTTCTTATTTTT [XGTACX_site7416] | 11.5 ± 0.93 |
| GTTCATATAATAAAATGTACATAATATATTATATAT [XGTACX_site7623] | 11 ± 0.56 |
| AGTTTAATTTTGTATACACACATTTGAATTATTAAT [CACACA_site7625] | 10.15 ± 0.035 |
| AACAAATATGATTTTTTATATATTTTTAAATTTGGT [GTGCAC_negctrl_site189] | 9.55 ± 0.23 |
| TATATCTATTTCAAATGTACTTATATGATTCTTATA [XGTACX_site6277] | 11.1 ± 0.71 |
| AGCTACAAAAATTAATATATATATGTATAGTTATAC [TGCATGCA_negctrl_site531] | 9.69 ± 0.13 |
| CTTAATATGGATATTGCATGTAGAACATGAACAATA [TGCATGCA_site760] | 10.04 ± 0.049 |
| TAAATATTATATTTATGTACATAAGTTTTTTTTAAT [XGTACX_site3559] | 11.2 ± 0.54 |
| TTATGCTCAAAGAAAAGTACATAAATAAAAGTATAT [XGTACX_site7365] | 11.4 ± 0.86 |
| TTAACAAATAAATGCACACATATATATAAATAATAT [CACACA_site28] | 9.97 ± 0.17 |
| GTATTATATTTTAATACACACCCAAATATTAAAAAG [CACACA_site8968] | 10.3 ± 0.13 |
| TGCCATCATATCATAGGTACACAAACATATAAAGAA [XGTACX_site4137] | 11.2 ± 0.73 |
| AAATGTTCAGAAACTATTATAAAAATGGAATAATAT [CACACA_negctrl_site1544] | 10 ± 0.12 |
| TATATGTAGATTAAACGTACTTACAACGGAATTATC [XGTACX_site3036] | 10.9 ± 0.51 |
| TTAATACTTTTTTCTGTACACACTTGATTTACTATA [CACACA_site2799] | 11.5 ± 0.81 |
| GAAGGAAAAGATACGATAAAATAAGATATTAATTTA [GTGCAC_negctrl_site419] | 9.71 |
| ATATATATATATATATGTACATAATGCATATAATAT [XGTACX_site6142] | 11.1 ± 0.52 |
| TAAACACCCATACATACACACATACATACACCCATA [CACACA_site5125] | 10.2 ± 0.27 |
| TTCTTCAATATATTCTTACACACTTAAAAAAAAAAA [CACACA_site228] | 9.99 ± 0.45 |

| Sequence | gcPBM binding intensity (ln) |
| --- | --- |
| TTTGTTATATTTAATACACACATATTATAAACACAT [CACACA_site7703] | 10.1 ± 0.12 |
| TATGAAAAGTAAAGTACACACAGGAAAAAAAAAAAA [CACACA_site1749] | 11.4 ± 1.1 |
| ATAAATAAAGGACACACACACACACTAATAAAAAAA [CACACA_site8840] | 11.2 ± 0.82 |
| TATATAATATATTTATGTACTCACAATGGGGTCTAC [XGTACX_site2691] | 11.4 ± 0.85 |
| GTATATAAATAAATAGTGCATTATTAAAAATAATGT | 10.1 ± 0.29 |
| TTTTTTTTTTTTTATTGTACATACTTTTAAATATAT [XGTACX_site4303] | 11.1 ± 0.95 |
| ATATATTTATATTTTTGTACCCAAAATTGTTTGATG [XGTACX_site3581] | 11.2 ± 0.72 |
| ATTGAGGCTGGTTATATAATAATTTTATTATTTTAG [GTGCAC_negctrl_site409] | 9.97 ± 0.11 |
| TAAAAGTTGAAGCACACACACAAAAGAAATACAATA [CACACA_site6649] | 10.3 ± 0.22 |
| GTATACAACATATGAACACACAAAATATTTTTTTTT [CACACA_site2928] | 9.97 ± 0.071 |
| TATCTCCACAAAAGATGTACTCATATTAATTTATAA [XGTACX_site3535] | 11.4 ± 0.84 |
| TTAAAGCTTGCATATACACACATACATAAATTCATA [CACACA_site7208] | 10 ± 0.18 |
| TACATACACAAATACACACACAAATACATACCCAAA [CACACA_site4550] | 10.3 ± 0.28 |
| TTTTTTCTTTTTTTTTTTTTTTTCTTTTTTTTTTTT [GTGCAC_negctrl_site196] | 9.85 ± 0.099 |
| TACGTGAAATTATATACACACATAAATATGGGTGTA [CACACA_site5687] | 9.805 ± 0.078 |
| AAAATATATTAAGGCACACACATACAGATATATATA [CACACA_site5951] | 10.08 ± 0.042 |
| GGTATACTCAAGTATACACACATATATATATATATA [CACACA_site5746] | 10.6 ± 0.28 |
| GAAATTTTATTACTTTTACACACCTATATATTATTC [CACACA_site9076] | 9.97 ± 0.11 |
| ATATTATATATACACGCACACACACTAATATATATA [CACACA_site9092] | 10.3 ± 0.28 |
| TACAAAAAAAAAGAACGTACAAAAAATTTCAAAAAT [XGTACX_site5860] | 11.1 ± 0.54 |
| TATGTATATATATTAACACACAAAAAAAAAAAAAAA [CACACA_site1812] | 9.79 ± 0.52 |
| TTAAACTATACCAAAACACACATACAAAATATAAAA [CACACA_site5494] | 10.07 ± 0.014 |
